In PMC4336329 (PLoS ONE, 2015):
Screen size: about 310,000 compounds; about 14,000 (4.5%) showed an effect of 50% or more. Effects have a minus sign here. The list shows a part of the results.

Target: human ether-à-go-go-related gene (hERG) potassium channel (human, UniProt Q12809)
Experiment: primary screen, population patch clamp on CHO cells stably expressing hERG
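Note: peak tail current of the secondary pulse compared with the same well before compound.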

Sequence of human ether-à-go-go-related gene (hERG) potassium channel (Q12809 whole entry, looked up): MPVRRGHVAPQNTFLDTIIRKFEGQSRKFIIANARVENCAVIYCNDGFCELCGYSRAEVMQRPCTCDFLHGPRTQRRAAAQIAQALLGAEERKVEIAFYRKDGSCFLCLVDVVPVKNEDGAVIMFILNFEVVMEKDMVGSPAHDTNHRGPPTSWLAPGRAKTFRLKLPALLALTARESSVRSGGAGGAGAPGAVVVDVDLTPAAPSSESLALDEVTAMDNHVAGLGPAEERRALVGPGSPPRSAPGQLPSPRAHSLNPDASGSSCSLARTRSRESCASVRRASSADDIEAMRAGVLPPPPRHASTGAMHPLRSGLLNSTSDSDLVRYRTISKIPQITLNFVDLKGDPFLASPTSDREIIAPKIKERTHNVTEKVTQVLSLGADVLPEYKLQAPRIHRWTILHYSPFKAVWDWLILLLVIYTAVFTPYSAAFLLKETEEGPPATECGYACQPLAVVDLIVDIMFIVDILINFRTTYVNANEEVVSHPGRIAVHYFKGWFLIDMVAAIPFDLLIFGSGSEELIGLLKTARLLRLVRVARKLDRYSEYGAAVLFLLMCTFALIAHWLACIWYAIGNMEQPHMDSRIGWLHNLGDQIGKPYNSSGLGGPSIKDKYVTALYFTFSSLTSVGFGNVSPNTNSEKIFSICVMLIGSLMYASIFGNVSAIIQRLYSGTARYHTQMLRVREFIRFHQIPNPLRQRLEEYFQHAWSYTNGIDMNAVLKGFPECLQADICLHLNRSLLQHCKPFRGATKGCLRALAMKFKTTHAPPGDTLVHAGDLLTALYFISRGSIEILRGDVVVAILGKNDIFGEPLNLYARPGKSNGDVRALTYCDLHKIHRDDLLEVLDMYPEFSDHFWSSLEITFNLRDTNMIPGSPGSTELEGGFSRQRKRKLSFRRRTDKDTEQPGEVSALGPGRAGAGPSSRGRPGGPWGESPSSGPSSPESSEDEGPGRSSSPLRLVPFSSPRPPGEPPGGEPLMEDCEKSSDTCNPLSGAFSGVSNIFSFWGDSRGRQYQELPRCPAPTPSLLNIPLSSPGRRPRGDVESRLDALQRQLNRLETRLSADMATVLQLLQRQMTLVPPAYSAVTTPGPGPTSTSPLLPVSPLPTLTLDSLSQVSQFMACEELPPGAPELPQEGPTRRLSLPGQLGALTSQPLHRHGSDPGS

First: CCOC(=O)c1ccc(-n2c(CCC(=O)O)ccc2-c2ccc(F)cc2)cc1
Second: O=C(NCC(=O)c1ccccc1)OCc1ccc([N+](=O)[O-])cc1
The “hERG current change (%, negative = inhibition) at 10uM” value of the first is higher: 0.749% for the first, -18.6% for the second.

First: O=C(/C=C/c1ccc2c(c1)OCO2)Nc1cccnc1
Second: CCC(=O)Nc1ccc2c(c1)ncn2-c1ccccc1C
The “hERG current change (%, negative = inhibition) at 10uM” value of the first is lower: -66.4% for the first, 22.2% for the second.

Going from `C/C(N)=C(/C#N)C(=O)COC(=O)c1cccc(O)c1` to `N#C/C(N=Nc1ccccc1O)=N\Nc1ccccc1O`, the “hERG current change (%, negative = inhibition) at 10uM” value rises from -2.77% to 15.9%.

First: NC(=O)CCN1CCCCC1
Second: Cc1cc(C)nc(SCC(=O)NC2CCCC2)n1
The “hERG current change (%, negative = inhibition) at 10uM” value of the first is lower: -13.9% for the first, -3.16% for the second.

Compared with `CC(=O)Nc1ccc(S(=O)(=O)Nc2nc3ccccc3nc2Nc2ccccc2)cc1`, `Nn1cc(-c2ccccc2)nc1SCC(=O)Nc1ccc(S(N)(=O)=O)cc1` is lower in “hERG current change (%, negative = inhibition) at 10uM” value: 10.3% for the first, -6.29% for the second.

First: Cc1nn(Cc2ccccc2)c(N)c1-c1ccccc1
Second: c1ccc(-c2cn3nc(-c4ccccc4)sc3n2)cc1
The “hERG current change (%, negative = inhibition) at 10uM” value of the first is lower: -9.15% for the first, -6.66% for the second.

First: COc1ccccc1C(=O)Nc1ccc(S(=O)(=O)N2CCC(C)CC2)cc1
Second: O=C(COC(=O)CNC(=O)c1ccc(Cl)cc1Cl)Nc1ccc(N2CCOCC2)cc1
The “hERG current change (%, negative = inhibition) at 10uM” value of the first is lower: 6.98% for the first, 12.3% for the second.

Going from `CC(C)Cc1nc(N2CCN(C(=O)c3ccccc3)CC2)c(C#N)c2c1CCC2` to `CC(C)CC(C(=O)Nc1oc(-c2ccco2)c(-c2ccco2)c1C#N)N1C(=O)c2ccccc2C1=O` (stereo not drawn), the “hERG current change (%, negative = inhibition) at 10uM” value rises from -24.1% to 5.81%.

First: CC(=O)c1cccc(-n2nnnc2SCC(=O)Nc2cccc(NC(=O)c3ccco3)c2)c1
Second: CS(=O)(=O)Cc1cccc(C(=O)NN(c2ccccc2)c2ccccc2)c1
The “hERG current change (%, negative = inhibition) at 10uM” value of the first is lower: -60.7% for the first, 4.18% for the second.

Compared with `Cc1cc(NC(=O)CCC(=O)N(CC(=O)NC2CCCC2)c2ccc(C(C)C)cc2)no1`, `COc1cc(C(=O)NCCC(=O)NC2CCC(C)CC2)cc(OC)c1OC` (stereo not drawn) is higher in “hERG current change (%, negative = inhibition) at 10uM” value: -6.14% for the first, 26.1% for the second.

Compared with `COc1cc(OC)c(-c2nnc(-c3ccc(OC)c(OC)c3OC)o2)cc1OC`, `COc1ccc(C2c3c(ncn(CCCN4CCOCC4)c3=N)Oc3ccc4ccccc4c32)cc1OC` (stereo not drawn) is lower in “hERG current change (%, negative = inhibition) at 10uM” value: 1.26% for the first, -51.3% for the second.

Compared with `CC(Cc1ccco1)NC(=O)c1ccc(C(F)(F)F)cc1` (stereo not drawn), `CNC(=O)CSc1nc2[nH]ncc2c(=O)[nH]1` is lower in “hERG current change (%, negative = inhibition) at 10uM” value: 17.8% for the first, 10% for the second.
